Reference: the supplement of paper PMC8728848
Some of the results follow.

Legend:
Test in all cases: glycan array binding signal (z-score within array); higher = stronger binding
Settings in all cases: glycan notation: IUPAC condensed, linker removed
Gal(a1-6)Glc = target: Gal(a1-6)Glc
Summary of the method: (§1)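 Columns mapping to the same glycan were averaged after glycan names were converted to IUPAC-condensed notation. The data come from 3228 arrays in the Consortium for Functional Glycomics database, limited to those with an available protein sequence. Binding is reported as a within-array Z-score averaged across arrays of one protein sequence and across linkers.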

Gal(b1-3)GalNAc = target: Gal(b1-3)GalNAc
Summary of the method: as §1

[1] = target: Gal(b1-3)GalNAc(b1-4)Gal(b1-4)Glc
Summary of the method: as §1

[2] = target: Gal(b1-3)GalNAc(b1-4)Gal3S(b1-4)Glc
Summary of the method: as §1

[3] = target: Gal(b1-3)GalNAc(b1-4)[Neu5Ac(a2-3)]Gal(b1-4)Glc
Summary of the method: as §1

[4] = target: Gal(b1-3)GalNAc(b1-4)[Neu5Gc(a2-3)]Gal(b1-4)Glc
Summary of the method: as §1

Gal(b1-3)GlcNAc = target: Gal(b1-3)GlcNAc
Summary of the method: as §1

[5] = target: Gal(b1-3)GlcNAc(b1-3)Gal(b1-4)Glc
Summary of the method: as §1

[6] = target: Gal(b1-3)GlcNAc(b1-3)Gal(b1-4)GlcNAc(b1-3)Gal(b1-4)Glc
Summary of the method: as §1

[7] = target: Gal(b1-3)GlcNAc(b1-3)Gal(b1-4)GlcNAc(b1-6)[Gal(b1-3)GlcNAc(b1-3)]Gal(b1-4)Glc
Summary of the method: as §1

[8] = target: Gal(b1-3)GlcNAc(b1-3)Gal(b1-4)[Fuc(a1-3)]GlcNAc(b1-3)Gal(b1-4)Glc
Summary of the method: as §1

[9] = target: Gal(b1-3)GlcNAc(b1-3)Gal(b1-4)[Fuc(a1-3)]GlcNAc(b1-6)[Gal(b1-3)GlcNAc(b1-3)]Gal(b1-4)Glc
Summary of the method: as §1

[10] = target: Gal(b1-3)GlcNAc(b1-3)[Fuc(a1-3)[Gal(b1-4)]GlcNAc(b1-6)]Gal(b1-4)Glc
Summary of the method: as §1

[11] = target: Gal(b1-3)GlcNAc(b1-3)[Fuc(a1-3)[Gal(b1-4)]GlcNAc(b1-6)]Gal(b1-4)]GlcNAc(b1-6)[Gal(b1-4)]GlcNAc(b1-3)]Gal(b1-4)Glc
Summary of the method: as §1

[12] = target: Gal(b1-3)GlcNAc(b1-3)[Gal(b1-4)GlcNAc(b1-6)]Gal(b1-4)Glc
Summary of the method: as §1

[13] = target: Gal(b1-3)GlcNAc(b1-3)[Gal(b1-4)GlcNAc(b1-6)]Gal(b1-4)GlcNAc(b1-6)[Gal(b1-3)GlcNAc(b1-3)]Gal(b1-4)Glc
Summary of the method: as §1

[14] = target: Gal(b1-3)[Fuc(a1-4)]GlcNAc
Summary of the method: as §1

[15] = target: Gal(b1-3)[Fuc(a1-4)]GlcNAc(b1-3)Gal(b1-4)Glc
Summary of the method: as §1

[16] = target: Gal(b1-3)[Fuc(a1-4)]GlcNAc(b1-3)Gal(b1-4)[Fuc(a1-3)]Glc
Summary of the method: as §1

[17] = target: Gal(b1-3)[Fuc(a1-4)]GlcNAc(b1-3)Gal(b1-4)[Fuc(a1-3)]GlcNAc(b1-3)Gal(b1-4)Glc
Summary of the method: as §1

[18] = target: Gal(b1-3)[Fuc(a1-4)]GlcNAc(b1-3)Gal(b1-4)[Fuc(a1-3)]GlcNAc(b1-6)[Gal(b1-3)[Fuc(a1-4)]GlcNAc(b1-3)]Gal(b1-4)Glc
Summary of the method: as §1

[19] = target: Gal(b1-3)[Fuc(a1-4)]GlcNAc(b1-3)[Fuc(a1-3)[Gal(b1-4)]GlcNAc(b1-6)]Gal(b1-4)Glc
Summary of the method: as §1

[20] = target: Gal(b1-3)[Neu5Ac(a2-6)]GalNAc(b1-4)Gal(b1-4)Glc
Summary of the method: as §1

[21] = target: Gal(b1-3)[Neu5Ac(a2-6)]GlcNAc(b1-3)Gal(b1-4)Glc
Summary of the method: as §1

Gal(b1-4)Glc = target: Gal(b1-4)Glc
Summary of the method: as §1

Gal(b1-4)GlcNAc = target: Gal(b1-4)GlcNAc
Summary of the method: as §1

[22] = target: Gal(b1-4)GlcNAc(b1-2)Man(a1-3)[Gal(b1-4)GlcNAc(b1-2)Man(a1-6)]Man(b1-4)GlcNAc(b1-4)GlcNAc
Summary of the method: as §1

[23] = target: Gal(b1-4)GlcNAc(b1-2)Man(a1-3)[Gal(b1-4)GlcNAc(b1-2)Man(a1-6)]Man(b1-4)GlcNAc(b1-4)[Fuc(a1-6)]GlcNAc
Summary of the method: as §1

[24] = target: Gal(b1-4)GlcNAc(b1-2)Man(a1-3)[Gal(b1-4)GlcNAc(b1-2)Man(a1-6)][GlcNAc(b1-4)]Man(b1-4)GlcNAc(b1-4)[Fuc(a1-6)]GlcNAc
Summary of the method: as §1

[25] = target: Gal(b1-4)GlcNAc(b1-2)Man(a1-3)[Man(a1-6)]Man(b1-4)GlcNAc(b1-4)GlcNAc
Summary of the method: as §1

[26] = target: Gal(b1-4)GlcNAc(b1-2)Man(a1-6)[GlcNAc(b1-2)Man(a1-3)]Man(b1-4)GlcNAc(b1-4)[Fuc(a1-6)]GlcNAc
Summary of the method: as §1

[27] = target: Gal(b1-4)GlcNAc(b1-2)Man(a1-6)[Man(a1-3)]Man(b1-4)GlcNAc(b1-4)GlcNAc
Summary of the method: as §1

[28] = target: Gal(b1-4)GlcNAc(b1-2)Man(a1-6)[Man(a1-3)]Man(b1-4)GlcNAc(b1-4)[Fuc(a1-6)]GlcNAc
Summary of the method: as §1

[29] = target: Gal(b1-4)GlcNAc(b1-2)[Gal(b1-4)GlcNAc(b1-4)]Man(a1-3)[Fuc(a1-3)[Gal(b1-4)]GlcNAc(b1-2)Man(a1-6)]Man(b1-4)GlcNAc(b1-4)GlcNAc
Summary of the method: as §1

[30] = target: Gal(b1-4)GlcNAc(b1-2)[Gal(b1-4)GlcNAc(b1-4)]Man(a1-3)[Gal(b1-4)GlcNAc(b1-2)Man(a1-6)]Man(b1-4)GlcNAc(b1-4)GlcNAc
Summary of the method: as §1

[31] = target: Gal(b1-4)GlcNAc(b1-2)[Gal(b1-4)GlcNAc(b1-4)]Man(a1-3)[Gal(b1-4)GlcNAc(b1-2)[Gal(b1-4)GlcNAc(b1-6)]Man(a1-6)]Man(b1-4)GlcNAc(b1-4)GlcNAc
Summary of the method: as §1

Gal(b1-4)GlcNAc(b1-3)Fuc = target: Gal(b1-4)GlcNAc(b1-3)Fuc
Summary of the method: as §1

[32] = target: Gal(b1-4)GlcNAc(b1-3)Gal(b1-4)Glc
Summary of the method: as §1

B1: MIC1 (Toxoplasma gondii), O00834 (protein)
chain: VGPEAYGEASHSHSPASGRYIQQMLDQRCQEIAAELCQSGLRKMCVPSSRIVARNAVGITHQNTLQWRCFDTASLLESNQENNGVNCVDDCGHTIPCPGGVHRQNSNHATRHEILSKLVEEGVQRFCSPYQASANKYCNDKFPGTIARRSKGFGNNVEVAWRCYEKASLLYSVYAECASNCGTTWYCPGGRRGTSTELDKRHYTEEEGIRQAIGSVDSPCSEVEVCLPKDENPPLCLDESGQISRT
Gal(a1-6)Glc
  glycan array binding signal (z-score): -0.287
Gal(b1-3)GalNAc
  glycan array binding signal (z-score): -0.3
[1]
  glycan array binding signal (z-score): -0.293
[2]
  glycan array binding signal (z-score): -0.271
[3]
  glycan array binding signal (z-score): -0.391
[4]
  glycan array binding signal (z-score): -0.079
Gal(b1-3)GlcNAc
  glycan array binding signal (z-score): -0.461
[5]
  glycan array binding signal (z-score): -0.425
[6]
  glycan array binding signal (z-score): -0.279
[7]
  glycan array binding signal (z-score): -0.278
[8]
  glycan array binding signal (z-score): -0.312
[9]
  glycan array binding signal (z-score): -0.312
[10]
  glycan array binding signal (z-score): -0.312
[11]
  glycan array binding signal (z-score): -0.312
[12]
  glycan array binding signal (z-score): -0.364
[13]
  glycan array binding signal (z-score): -0.296
[14]
  glycan array binding signal (z-score): -0.287
[15]
  glycan array binding signal (z-score): -0.417
[16]
  glycan array binding signal (z-score): -0.296
[17]
  glycan array binding signal (z-score): -0.298
[18]
  glycan array binding signal (z-score): -0.266
[19]
  glycan array binding signal (z-score): -0.308
[20]
  glycan array binding signal (z-score): -0.278
[21]
  glycan array binding signal (z-score): -0.412
Gal(b1-4)Glc
  glycan array binding signal (z-score): -0.36
Gal(b1-4)GlcNAc
  glycan array binding signal (z-score): -0.458
[22]
  glycan array binding signal (z-score): -0.443
[23]
  glycan array binding signal (z-score): -0.3
[24]
  glycan array binding signal (z-score): -0.312
[25]
  glycan array binding signal (z-score): -0.312
[26]
  glycan array binding signal (z-score): -0.287
[27]
  glycan array binding signal (z-score): -0.287
[28]
  glycan array binding signal (z-score): -0.312
[29]
  glycan array binding signal (z-score): -0.312
[30]
  glycan array binding signal (z-score): -0.279
[31]
  glycan array binding signal (z-score): -0.309
Gal(b1-4)GlcNAc(b1-3)Fuc
  glycan array binding signal (z-score): -0.287
[32]
  glycan array binding signal (z-score): -0.426
